Results reported in patent publication US20250223331A1, “GLP-1/GIP DUAL-TARGETED POLYPEPTIDE AND FUSION PROTEIN AND APPLICATIONS THEREOF” (SUNSHINE LAKE PHARMA CO., LTD., priority 2021, published 2025).

T1: GIPR (UniProt P48546 22-466, limits assumed)
T1 sequence (looked up): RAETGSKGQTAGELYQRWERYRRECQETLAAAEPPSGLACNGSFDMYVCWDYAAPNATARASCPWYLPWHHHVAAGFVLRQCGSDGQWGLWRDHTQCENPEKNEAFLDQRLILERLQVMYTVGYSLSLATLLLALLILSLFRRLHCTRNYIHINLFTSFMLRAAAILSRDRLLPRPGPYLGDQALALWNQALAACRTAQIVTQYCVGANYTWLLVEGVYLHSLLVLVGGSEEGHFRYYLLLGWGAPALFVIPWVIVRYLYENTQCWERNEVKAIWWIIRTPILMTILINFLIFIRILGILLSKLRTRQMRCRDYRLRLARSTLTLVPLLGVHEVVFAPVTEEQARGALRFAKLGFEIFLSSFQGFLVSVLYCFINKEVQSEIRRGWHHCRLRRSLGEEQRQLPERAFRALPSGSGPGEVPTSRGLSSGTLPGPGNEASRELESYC


Columns and labels:
[1] = biological target: GLP-1R (UniProt P43220); test: cell-based or functional assay
[2] = biological target: T1, GIPR; test: cell-based or functional assay

Binder | EC50, cAMP [1] | EC50, cAMP [2]
HEC-G31 (Fc fusion) YGEGTFTSDYSIYLDKKAQRLFIEWLLAQGPSSGAPPPSGGGGSGGGGSGGGGSA[here human IgG4 Fc with S228P F234A L235A (EU numbers) without letters] | 2.56 nM | 2.85 nM
HEC-G57 (Fc fusion) YGEGTFTSDYSIALDKKAQQAFIEWLLAGGPSSGAPPPSGGGGSGGGGSGGGGSA[here human IgG4 Fc with S228P F234A L235A (EU numbers) without letters] | 17.5 nM | 9.43 nM
HEC-G44 (Fc fusion) YGEGTFTSDYSIALDKKAQRDFIEWLLAGGPSSGAPPPSGGGGSGGGGSGGGGSA[here human IgG4 Fc with S228P F234A L235A (EU numbers) without letters] | 2.55 nM | 0.171 nM
HEC-G65 (Fc fusion) YGEGTFTSDYSIYLDKKAQQAFVEWLLAGGPSSGAPPPSGGGGSGGGGSGGGGSA[here human IgG4 Fc with S228P F234A L235A (EU numbers) without letters] | 1.58 nM | 3.78 nM
HEC-G56 (Fc fusion) YGEGTFTSDYSIALDKLAQQDFIEWLLAGGPSSGAPPPSGGGGSGGGGSGGGGSA[here human IgG4 Fc with S228P F234A L235A (EU numbers) without letters] |  | 0.154 nM
HEC-G61 (Fc fusion) YGEGTFTSDYSIYLDKIAQQAFIEWLLAGGPSSGAPPPSGGGGSGGGGSGGGGSA[here human IgG4 Fc with S228P F234A L235A (EU numbers) without letters] | 7.58 nM | 1.15 nM
HEC-G48 (Fc fusion) YAEGTFTSDYSIYLDKIAQQAFIEWLLAGGPSSGAPPPSGGGGSGGGGSGGGGSA[here human IgG4 Fc with S228P F234A L235A (EU numbers) without letters] | 1.16 nM | 0.091 nM
HEC-G35 (Fc fusion) YAEGTFTSDYSIYLDKLAQQEFIDWLKAGGPSSGAPPPSGGGGSGGGGSGGGGSA[here human IgG4 Fc with S228P F234A L235A (EU numbers) without letters] | 2.86 nM | 1.24 nM
HEC-G54 (Fc fusion) YGEGTFTSDYSIYLDKQAQRAFIEWLIAGGPSSGAPPPSGGGGSGGGGSGGGGSA[here human IgG4 Fc with S228P F234A L235A (EU numbers) without letters] | 0.121 nM | 1.04 nM
HEC-G38 (Fc fusion) YAEGTFTSDYSIYLDKLAQQAFIEWLLAGGPSSGAPPPSGGGGSGGGGSGGGGSA[here human IgG4 Fc with S228P F234A L235A (EU numbers) without letters] | 12.5 nM | 0.589 nM
HEC-G47 (Fc fusion) YGEGTFTSDYSIYLDKQAQRDFVEWLLAGGPSSGAPPPSGGGGSGGGGSGGGGSA[here human IgG4 Fc with S228P F234A L235A (EU numbers) without letters] | 0.995 nM | 0.651 nM
HEC-G68 (Fc fusion) YGEGTFTSDYSIYLDKKAQRDFVEWLVAGGPSSGAPPPSGGGGSGGGGSGGGGSA[here human IgG4 Fc with S228P F234A L235A (EU numbers) without letters] | 0.272 nM | 10.2 nM
HEC-G63 (Fc fusion) YGEGTFTSDYSIYLDKLAQRDFVEWLLAGGPSSGAPPPSGGGGSGGGGSGGGGSA[here human IgG4 Fc with S228P F234A L235A (EU numbers) without letters] | 39.1 nM | 17.7 nM
HEC-G67 (Fc fusion) YSEGTFTSDYSIYLDKKAQRDFVEWLLAGGPSSGAPPPSGGGGSGGGGSGGGGSA[here human IgG4 Fc with S228P F234A L235A (EU numbers) without letters] | 1.14 nM | 0.485 nM
HEC-G66 (Fc fusion) YGEGTFTSDYSIYLDKLAQQAFVEWLLAGGPSSGAPPPSGGGGSGGGGSGGGGSA[here human IgG4 Fc with S228P F234A L235A (EU numbers) without letters] | 7.03 nM | 0.324 nM
HEC-G37 (Fc fusion) YAEGTFTSDYSIYLDKLAQQAFIEWLKAGGPSSGAPPPSGGGGSGGGGSGGGGSA[here human IgG4 Fc with S228P F234A L235A (EU numbers) without letters] | 0.745 nM | 0.563 nM
HEC-G64 (Fc fusion) YGEGTFTSDYSIYLDKKAQQDFVEWLLAGGPSSGAPPPSGGGGSGGGGSGGGGSA[here human IgG4 Fc with S228P F234A L235A (EU numbers) without letters] | 6.32 nM | 0.875 nM
HEC-G46 (Fc fusion) YGEGTFTSDYSIYLDKKAQRDFIEWLIAGGPSSGAPPPSGGGGSGGGGSGGGGSA[here human IgG4 Fc with S228P F234A L235A (EU numbers) without letters] | 0.285 nM | 0.297 nM
HEC-G60 (Fc fusion) YGEGTFTSDYSIYLDKLAQQEFIDWLKAGGPSSGAPPPSGGGGSGGGGSGGGGSA[here human IgG4 Fc with S228P F234A L235A (EU numbers) without letters] | 8.75 nM | 3.05 nM
HEC-G53 (Fc fusion) YGEGTFTSDYSIYLDKKAQQDFVEWLIAGGPSSGAPPPSGGGGSGGGGSGGGGSA[here human IgG4 Fc with S228P F234A L235A (EU numbers) without letters] | 0.772 nM | 0.518 nM
HEC-G59 (Fc fusion) YGEGTFTSDYSIYLDKLAQQAFIEWLKAGGPSSGAPPPSGGGGSGGGGSGGGGSA[here human IgG4 Fc with S228P F234A L235A (EU numbers) without letters] | 0.844 nM | 6.09 nM
HEC-G40 (Fc fusion) HGEGTFTSDYSIYLDKIAQQAFIEWLLAGGPSSGAPPPSGGGGSGGGGSGGGGSA[here human IgG4 Fc with S228P F234A L235A (EU numbers) without letters] | 0.061 nM | 10.9 nM
HEC-G39 (Fc fusion) YAEGTFTSDYSIYLDKIAQQAFIEWLKAGGPSSGAPPPSGGGGSGGGGSGGGGSA[here human IgG4 Fc with S228P F234A L235A (EU numbers) without letters] | 0.675 nM | 1.34 nM
HEC-G55 (Fc fusion) YGEGTFTSDYSIYLDKLAQQDFVEWLIAGGPSSGAPPPSGGGGSGGGGSGGGGSA[here human IgG4 Fc with S228P F234A L235A (EU numbers) without letters] | 3.98 nM | 0.278 nM
HEC-G41 (Fc fusion) HGQGTFTSDYSIYLDKIAQQAFIEWLLAGGPSSGAPPPSGGGGSGGGGSGGGGSA[here human IgG4 Fc with S228P F234A L235A (EU numbers) without letters] | 1.57 nM | 6.02 nM
HEC-G26 (Fc fusion) YGEGTFISDYSIYLDKKAQRDFVEWLLAQGPSSGAPPPSGGGGSGGGGSGGGGSA[here human IgG4 Fc with S228P F234A L235A (EU numbers) without letters] |  | 0.064 nM
HEC-G34 (Fc fusion) YGEGTFTSDYSIYLDKQAQRDFVEWLIAGGPSSGAPPPSGGGGSGGGGSGGGGSA[here human IgG4 Fc with S228P F234A L235A (EU numbers) without letters] | 0.354 nM | 0.275 nM
HEC-G32 (Fc fusion) YGQGTFTSDYSIYLDKKAQRDFVEWLLAQGPSSGAPPPSGGGGSGGGGSGGGGSA[here human IgG4 Fc with S228P F234A L235A (EU numbers) without letters] | 1.86 nM | 0.321 nM
